# Results reported in the supplement of paper PMC8728848.
# This is one part of the list.
# B1: ArathEULS3 (Arabidopsis thaliana), Q945P1 (protein)
# chain: MEHHHQHHRHHQRDDGEDDRQSFGVPPPHVDAPPQPHGLYQSQPHFDPYAPTPQAPAPYRSETQFEPHAPPPYRSEPYFETPAPPPSFGHVSHVGHQSPNESYPPEHHRYGGYQQPSNSLLESHGDHSGVTHVAHHSSNQPQSSSGVYHKPDENRLPDNLAGLAGRATVKVYSKAEPNYNLTIRDGKVILAPADPSDEAQHWYKDEKYSTKVKDADGHPCFALVNKATGEAMKHSVGATHPVHLIRYVPDKLDESVLWTESKDFGDGYRTIRMVNNTRLNVDAYHGDSKSGGVRDGTTIVLWDWNKGDNQLWKIFPFILEQKLISEEDLNSAVDHHHHHH
# Columns and labels:
# Test in all cases: glycan array binding signal (z-score within array); higher = stronger binding
# Details in all cases: glycan notation: IUPAC condensed, linker removed
# [1] = target: GlcNAc(a1-4)Gal(b1-4)GlcNAc(b1-3)Gal(b1-4)GlcNAc(b1-3)Gal(b1-4)GlcNAc
# Outline: (§1)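 Glycan array binding is given as a within-array Z-score, which can be read as non-binding when negative. The arrays, 3228 of them, came from the Consortium for Functional Glycomics database and were retained only where the protein sequence was available. Z-scores were averaged across arrays of the same protein sequence at different concentrations or buffers and across linkers.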
# [2] = target: GlcNAc(a1-4)Gal(b1-4)GlcNAc(b1-3)Gal(b1-4)[Fuc(a1-3)]GlcNAc(b1-3)Gal(b1-4)[Fuc(a1-3)]GlcNAc
# Outline: as §1
# [3] = target: GlcNAc(a1-6)Gal(b1-4)GlcNAc
# Outline: as §1
# [4] = target: GlcNAc(b1-2)Gal(b1-3)GalNAc
# Outline: as §1
# [5] = target: GlcNAc(b1-2)Man(a1-3)[GlcNAc(b1-2)Man(a1-6)]Man(b1-4)GlcNAc(b1-4)GlcNAc
# Outline: as §1
# [6] = target: GlcNAc(b1-2)Man(a1-3)[GlcNAc(b1-2)Man(a1-6)]Man(b1-4)GlcNAc(b1-4)[Fuc(a1-6)]GlcNAc
# Outline: as §1
# [7] = target: GlcNAc(b1-2)Man(a1-3)[GlcNAc(b1-4)][GlcNAc(b1-2)Man(a1-6)]Man(b1-4)GlcNAc(b1-4)GlcNAc
# Outline: as §1
# [8] = target: GlcNAc(b1-2)[GlcNAc(b1-4)]Man(a1-3)[GlcNAc(b1-2)Man(a1-6)]Man(b1-4)GlcNAc(b1-4)GlcNAc
# Outline: as §1
# [9] = target: GlcNAc(b1-2)[GlcNAc(b1-4)]Man(a1-3)[GlcNAc(b1-4)][GlcNAc(b1-2)Man(a1-6)]Man(b1-4)GlcNAc(b1-4)GlcNAc
# Outline: as §1
# [10] = target: GlcNAc(b1-2)[GlcNAc(b1-4)]Man(a1-3)[GlcNAc(b1-4)][GlcNAc(b1-2)[GlcNAc(b1-6)]Man(a1-6)]Man(b1-4)GlcNAc(b1-4)GlcNAc
# Outline: as §1
# [11] = target: GlcNAc(b1-2)[GlcNAc(b1-4)]Man(a1-3)[GlcNAc(b1-4)][GlcNAc(b1-2)[GlcNAc(b1-6)]Man(a1-6)]Man(b1-4)GlcNAc(b1-4)[Fuc(a1-6)]GlcNAc
# Outline: as §1
# [12] = target: GlcNAc(b1-2)[GlcNAc(b1-6)]Man(a1-6)[GlcNAc(b1-2)Man(a1-3)]Man(b1-4)GlcNAc(b1-4)GlcNAc
# Outline: as §1
# [13] = target: GlcNAc(b1-2)[GlcNAc(b1-6)]Man(a1-6)[GlcNAc(b1-2)Man(a1-3)]Man(b1-4)GlcNAc(b1-4)[Fuc(a1-6)]GlcNAc
# Outline: as §1
# [14] = target: GlcNAc(b1-2)[GlcNAc(b1-6)]Man(a1-6)[GlcNAc(b1-2)Man(a1-3)][GlcNAc(b1-4)]Man(b1-4)GlcNAc(b1-4)GlcNAc
# Outline: as §1
# GlcNAc(b1-3)Gal = target: GlcNAc(b1-3)Gal
# Outline: as §1
# [15] = target: GlcNAc(b1-3)Gal(b1-3)GalNAc
# Outline: as §1
# GlcNAc(b1-3)Gal(b1-4)Glc = target: GlcNAc(b1-3)Gal(b1-4)Glc
# Outline: as §1
# [16] = target: GlcNAc(b1-3)Gal(b1-4)GlcNAc
# Outline: as §1
# [17] = target: GlcNAc(b1-3)Gal(b1-4)GlcNAc(b1-3)Gal(b1-4)GlcNAc
# Outline: as §1
# GlcNAc(b1-3)GalNAc = target: GlcNAc(b1-3)GalNAc
# Outline: as §1
# GlcNAc(b1-3)Man = target: GlcNAc(b1-3)Man
# Outline: as §1
# [18] = target: GlcNAc(b1-3)[GlcNAc(b1-4)][GlcNAc(b1-6)]GlcNAc
# Outline: as §1
# [19] = target: GlcNAc(b1-3)[GlcNAc(b1-6)]Gal(b1-4)GlcNAc
# Outline: as §1
# [20] = target: GlcNAc(b1-3)[GlcNAc(b1-6)]GalNAc
# Outline: as §1
# [21] = target: GlcNAc(b1-4)Gal(b1-4)GlcNAc
# Outline: as §1
# GlcNAc(b1-4)GlcNAc = target: GlcNAc(b1-4)GlcNAc
# Outline: as §1
# [22] = target: GlcNAc(b1-4)GlcNAc(b1-4)GlcNAc
# Outline: as §1
# [23] = target: GlcNAc(b1-4)GlcNAc(b1-4)GlcNAc(b1-4)GlcNAc(b1-4)GlcNAc
# Outline: as §1
# [24] = target: GlcNAc(b1-4)GlcNAc(b1-4)GlcNAc(b1-4)GlcNAc(b1-4)GlcNAc(b1-4)GlcNAc
# Outline: as §1
# [25] = target: GlcNAc(b1-4)[GlcNAc(b1-6)]GalNAc
# Outline: as §1
# [26] = target: GlcNAc(b1-6)Gal(b1-4)GlcNAc
# Outline: as §1
# GlcNAc(b1-6)GalNAc = target: GlcNAc(b1-6)GalNAc
# Outline: as §1
# GlcNAc3Prop(b1-4)GlcNAc = target: GlcNAc3Prop(b1-4)GlcNAc
# Outline: as §1
# [27] = target: GlcNAc6S(b1-3)Gal(b1-4)GlcNAc
# Outline: as §1
# Kdn(a2-3)Gal(b1-3)GalNAc = target: Kdn(a2-3)Gal(b1-3)GalNAc
# Outline: as §1
# Kdn(a2-3)Gal(b1-3)GlcNAc = target: Kdn(a2-3)Gal(b1-3)GlcNAc
# Outline: as §1
# Kdn(a2-3)Gal(b1-4)Glc = target: Kdn(a2-3)Gal(b1-4)Glc
# Outline: as §1
binder,measurement,setting,value
B1,glycan array binding signal (z-score),[1],-0.273
same,glycan array binding signal (z-score),[2],3.11
same,glycan array binding signal (z-score),[3],0.19
same,glycan array binding signal (z-score),[4],-0.276
same,glycan array binding signal (z-score),[5],0.204
same,glycan array binding signal (z-score),[6],-0.201
same,glycan array binding signal (z-score),[7],-0.393
same,glycan array binding signal (z-score),[8],-0.03
same,glycan array binding signal (z-score),[9],-0.378
same,glycan array binding signal (z-score),[10],-0.121
same,glycan array binding signal (z-score),[11],-0.219
same,glycan array binding signal (z-score),[12],-0.267
same,glycan array binding signal (z-score),[13],-0.213
same,glycan array binding signal (z-score),[14],-0.201
same,glycan array binding signal (z-score),GlcNAc(b1-3)Gal,1.53
same,glycan array binding signal (z-score),[15],-0.13
same,glycan array binding signal (z-score),GlcNAc(b1-3)Gal(b1-4)Glc,0.165
same,glycan array binding signal (z-score),[16],-0.056
same,glycan array binding signal (z-score),[17],-0.25
same,glycan array binding signal (z-score),GlcNAc(b1-3)GalNAc,1.02
same,glycan array binding signal (z-score),GlcNAc(b1-3)Man,-0.164
same,glycan array binding signal (z-score),[18],-0.229
same,glycan array binding signal (z-score),[19],-0.375
same,glycan array binding signal (z-score),[20],-0.203
same,glycan array binding signal (z-score),[21],-0.229
same,glycan array binding signal (z-score),GlcNAc(b1-4)GlcNAc,-0.268
same,glycan array binding signal (z-score),[22],-0.233
same,glycan array binding signal (z-score),[23],-0.358
same,glycan array binding signal (z-score),[24],-0.285
same,glycan array binding signal (z-score),[25],-0.324
same,glycan array binding signal (z-score),[26],-0.338
same,glycan array binding signal (z-score),GlcNAc(b1-6)GalNAc,-0.333
same,glycan array binding signal (z-score),GlcNAc3Prop(b1-4)GlcNAc,-0.242
same,glycan array binding signal (z-score),[27],-0.169
same,glycan array binding signal (z-score),Kdn(a2-3)Gal(b1-3)GalNAc,-0.099
same,glycan array binding signal (z-score),Kdn(a2-3)Gal(b1-3)GlcNAc,-0.273
same,glycan array binding signal (z-score),Kdn(a2-3)Gal(b1-4)Glc,0.388
